{"source": "PubChem BioAssay AID485344", "about": "(National Center for Advancing Translational Sciences (NCATS), 2010)", "note": "The whole screen tested about 340,000 compounds, of which about 6,900 (2%) were called active. Cut-off read from the data, not from the text of the source: active = inhibition above about 30%; inactive = below that, where a call was filed. Only a part is listed here, and it is no random draw. Where no call is shown, the source filed none."}
{"molecular_target": "D(2) dopamine receptor (Homo sapiens) (UniProt P14416)", "sequence (P14416 whole entry, looked up)": "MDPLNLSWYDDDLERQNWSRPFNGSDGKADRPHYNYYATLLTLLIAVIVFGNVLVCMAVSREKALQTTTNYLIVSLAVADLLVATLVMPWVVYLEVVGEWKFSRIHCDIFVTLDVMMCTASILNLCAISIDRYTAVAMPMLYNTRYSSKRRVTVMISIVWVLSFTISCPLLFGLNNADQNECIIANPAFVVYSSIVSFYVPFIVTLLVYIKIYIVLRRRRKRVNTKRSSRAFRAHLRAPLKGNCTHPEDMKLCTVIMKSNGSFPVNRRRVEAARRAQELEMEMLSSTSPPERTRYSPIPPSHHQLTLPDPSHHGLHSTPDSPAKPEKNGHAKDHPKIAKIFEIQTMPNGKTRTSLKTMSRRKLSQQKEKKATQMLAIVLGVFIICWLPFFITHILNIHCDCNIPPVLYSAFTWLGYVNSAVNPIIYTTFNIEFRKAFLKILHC", "assay": "HTS Assay for Allosteric Antagonists of the Human D2 Dopamine Receptor: Primary Screen for Antagonists; note: 0% is about no effect", "details": "HEK293 TREx D2 cells, calcium flux, dopamine EC80; at 10 µM; stronger effect = higher value", "in_short": "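Measurement of antagonist activity uses fluorescent calcium dye in inducible HEK293 T-REx D2 cells: 10 s baseline, compound addition with 180 s read, EC80 dopamine addition with a further 180 s read.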"}
{"smiles": "CCOC(=O)c1c(C)[nH]c(C)c1S(=O)(=O)N(C)CC(=O)N1CCN(c2cccc(Cl)c2)CC1", "inhibition": "-4.69%"}
{"smiles": "Cn1c(=O)c2c(nc(N3CCOCC3)n2Cc2ccccc2)n(C)c1=O", "inhibition": "-2.26%"}
{"smiles": "Cc1cccc(C)c1NC(=O)Cn1cc(S(=O)(=O)Cc2ccc(F)cc2)c2ccccc21", "inhibition": "9.04%"}
{"smiles": "COC(=O)C1C(c2ccccc2)C(C(=O)N2CCN(C)CC2)C1c1ccccc1", "note": "(stereo unspecified)", "inhibition": "active: 33.1%"}
{"smiles": "Cc1ccc(CNC(=O)c2cccc(Nc3nc4ccccc4n4nnnc34)c2)cc1", "inhibition": "-15.4%"}
{"smiles": "CCc1ccc(NC(=O)CCNC(=O)Cn2cnc3ccccc3c2=O)cc1", "inhibition": "-7.14%"}
{"smiles": "COc1cccc(OCC(O)CN2CCN(c3ccc(F)cc3)CC2)c1", "note": "(stereo unspecified)", "inhibition": "active: 80.4%"}
{"smiles": "Cc1ccc(NC(=O)Cn2ncn3c(cc4ccccc43)c2=O)cc1C", "inhibition": "12.2%"}
{"smiles": "COc1cc(OC)c(NC(=O)c2c(C)oc3ncnc(N4CCCCC4)c23)cc1Cl", "inhibition": "-7.61%"}
{"smiles": "COC(=O)c1ccccc1NC(=O)Cn1c(=O)n(CCCCC(=O)NCc2ccc3c(c2)OCO3)c(=O)c2ccccc21", "inhibition": "-6.89%"}
{"smiles": "Cc1ccc(N2CCN(c3nc4ccccc4c4nnc(C)n34)CC2)c(C)c1", "inhibition": "-10.5%"}
{"smiles": "CCNc1sc(S(C)(=O)=O)nc1S(=O)(=O)c1ccc(C)cc1", "inhibition": "-0.756%"}
{"smiles": "Cc1ccc(Cn2c(=O)n(Cc3ccccc3Cl)c(=O)c3cccnc32)cc1", "inhibition": "5.97%"}
{"smiles": "CCCCc1nn2c(=O)cc(COC(=O)c3cccs3)nc2s1", "inhibition": "-4.38%"}
{"smiles": "Clc1cccc(-n2ncc3c(N4CCCCCC4)ncnc32)c1", "inhibition": "20.7%"}
{"smiles": "Cc1cc(C(=O)N2CCN(c3cc(Cl)ccc3C)CC2)c2c(C)nn(-c3ccccc3)c2n1", "inhibition": "-4.7%"}
{"smiles": "O=C(CSc1nc2ccccc2nc1Cc1ccccc1)N1CCCc2ccccc21", "inhibition": "22.1%"}
{"smiles": "CCCc1cc(=O)[nH]c(Nc2ccc(O)cc2C)n1", "inhibition": "-6.54%"}
{"smiles": "COc1cc(-c2ccno2)ccc1S(=O)(=O)N1CCN(c2ccc(F)cc2)CC1", "inhibition": "-2.05%"}
{"smiles": "CCc1ccc2occ(CC(=O)N(Cc3ccc(N(C)C)cc3)C3CCS(=O)(=O)C3)c2c1", "note": "(stereo unspecified)", "inhibition": "5.39%"}
{"smiles": "CCOC(=O)c1cccc(NC(=O)c2sc3nc[nH]c(=O)c3c2C)c1", "inhibition": "-12.4%"}
{"smiles": "Cc1ccc(C(=O)NCCc2nnc3ccc(SCC(=O)Nc4ccccc4C)nn23)cc1", "inhibition": "active: 41.2%"}
{"smiles": "CCOC(=O)N1CCC(NC(=O)c2ccc3c(c2)N(Cc2ccc(Cl)cc2)C(=O)c2ccccc2S3=O)CC1", "note": "(stereo unspecified)", "inhibition": "8.34%"}
{"smiles": "Cc1cccc(N(C)S(=O)(=O)c2nnc(NC(=O)C3CCCCC3)s2)c1", "inhibition": "7.2%"}
{"smiles": "Cn1ccc2cc(S(=O)(=O)N3CCN(C(=O)Nc4ccccc4F)CC3)ccc21", "inhibition": "-17.2%"}
{"smiles": "O=C(O)c1ccc(Nc2ncnc3ccccc23)cc1", "inhibition": "active: 31.7%"}
{"smiles": "CCc1cccc(NC(=O)COc2cc(=O)n(CC)c3ccccc23)c1", "inhibition": "-8.67%"}
{"smiles": "Cn1nccc1C(=O)NC1CCN(Cc2ccccc2)CC1", "inhibition": "active: 54.8%"}
{"smiles": "Nc1nc(N)c(S(=O)(=O)c2ccccc2)c(Nc2ccc(F)cc2)n1", "inhibition": "-9.59%"}
{"smiles": "CC(C)c1ccc(/C=C(\\C#N)c2nc(-c3ccc(O)cc3)cs2)cc1", "inhibition": "-1.97%"}
{"smiles": "CCc1nnc(NC(=O)CSc2nc3c([nH]c4ccccc43)c(=O)n2-c2ccc(OC)cc2)s1", "inhibition": "15.7%"}
{"smiles": "O=C(C1CCCCC1)N(Cc1cccnc1)c1nc2ccc(F)cc2s1", "inhibition": "-26.8%"}
{"smiles": "O=C1C2CCCN2C(=O)N1CCCN1CCN(c2cccc(Cl)c2)CC1", "note": "(stereo unspecified)", "inhibition": "active: 31.3%"}
{"smiles": "CCOc1ccc(NC(=O)Cn2c(=O)cc(C)c3c(C)nn(-c4ccc(CC)cc4)c32)cc1", "inhibition": "-6.13%"}
{"smiles": "COc1ccc(C(=O)Nc2ccccc2C(=O)OCc2cc(=O)n3nc(C4CC4)sc3n2)cc1", "inhibition": "-18.1%"}
{"smiles": "CCCCc1nc(NCCO)c(C#N)c2c1CCCC2", "inhibition": "active: 48.2%"}
{"smiles": "CC(C)c1nc2ccc(NC(=O)C34CC5CC(CC(C5)C3)C4)cc2[nH]1", "inhibition": "active: 33.3%"}
{"smiles": "CCOC(=O)N1CCc2c(sc3c2c(=O)n(-c2ccc(CC)cc2)c(=O)n3Cc2cc(C)ccc2C)C1", "inhibition": "5.94%"}
{"smiles": "CCOC(=O)c1c(C)oc2nc(C)nc(Nc3cc(C)ccc3OC)c12", "inhibition": "-14.8%"}
{"smiles": "CCOc1ccccc1NC(=O)C1CCCN(S(=O)(=O)c2cn(C)cn2)C1", "note": "(stereo unspecified)", "inhibition": "-9.55%"}
{"smiles": "CCCCN(CC)Cc1ccc(CNS(=O)(=O)c2cc3c(cc2Cl)NC(=O)CO3)o1", "inhibition": "-23.9%"}
{"smiles": "CCOc1ccc(NC(=O)Cn2c(=O)n(Cc3ccc(C(=O)NCc4ccc5c(c4)OCO5)cc3)c(=O)c3ccccc32)cc1", "inhibition": "-0.223%"}
{"smiles": "CCCCOc1ccc(C(=O)Nc2ccc3c(c2)CCCN3S(=O)(=O)c2ccc(C)cc2)cc1", "inhibition": "1.85%"}
{"smiles": "CCOc1ccc(-c2cc(NC(=O)Nc3ccccc3C(F)(F)F)c(C(=O)OC)s2)cc1", "inhibition": "7.74%"}
{"smiles": "Cc1ccc(N2CC(C(=O)NCc3nnnn3-c3ccc(C)c(C)c3)CC2=O)cc1", "note": "(stereo unspecified)", "inhibition": "-4.05%"}
{"smiles": "COC(=O)c1ccc(Cn2c(SCC(=O)Nc3ccc(F)cc3)nc3ccccc32)cc1", "inhibition": "8.85%"}
{"smiles": "O=C(Nc1c2c(nn1-c1ccc(Cl)cc1)CS(=O)(=O)C2)c1cccc(Cl)c1", "inhibition": "-3.72%"}
{"smiles": "CC1=C(C(=O)Nc2ccccc2)C(c2cccs2)n2nc(SCc3ccccc3)nc2N1", "note": "(stereo unspecified)", "inhibition": "4.93%"}
{"smiles": "O=C(CSc1ccc2nnc(CCNS(=O)(=O)c3ccccc3)n2n1)Nc1ccccc1C(F)(F)F", "inhibition": "2.55%"}
{"smiles": "CC(=O)N1c2ccc(S(=O)(=O)NCCC(=O)Nc3ccc(C)cc3Br)cc2CC1C", "note": "(stereo unspecified)", "inhibition": "12.4%"}
{"smiles": "CCc1cccc(NC(=O)CN2c3ccccc3S(=O)(=O)c3ccccc32)c1", "inhibition": "17.8%"}
{"smiles": "O=C(c1ccc(F)cc1)n1nc(-c2ccc(Cl)cc2)nc1NCc1ccco1", "inhibition": "-16%"}
{"smiles": "COc1ccccc1NC(=O)Cn1nc(C)n2cccc2c1=O", "inhibition": "3.19%"}
{"smiles": "Cc1ccc(CNC(=O)Cn2ccn(-c3cc(C)cc(C)c3)c(=O)c2=O)cc1", "inhibition": "-22.2%"}
{"smiles": "COc1ccc(OC)c(NC(=O)c2cc3cc4ccc(C)cc4nc3s2)c1", "inhibition": "20.8%"}
{"smiles": "COc1ccc(CCN2C(=O)CN(C3CCCCCC3)C(=O)C2c2ccc(C)cc2)cc1OC", "note": "(stereo unspecified)", "inhibition": "8.93%"}
{"smiles": "O=C(NCc1ccccn1)c1nn(-c2ccccc2F)nc1CO", "inhibition": "17.9%"}
{"smiles": "COc1cc(CN2CCN(S(=O)(=O)c3ccc(F)cc3)CC2)cc(OC)c1OC", "inhibition": "8.08%"}
{"smiles": "Fc1ccccc1C1=NC(c2ccc(C(F)(F)F)cc2)=Nc2ccccc2N1", "inhibition": "-1.71%"}
{"smiles": "CCOc1ccccc1CN1CCc2nc(Nc3ccccc3)ncc2C1", "inhibition": "-12.6%"}
{"smiles": "Fc1ccc(-n2ncc3c(N4CCN(Cc5ccccc5)CC4)ncnc32)cc1", "inhibition": "7.05%"}
{"smiles": "COC(=O)c1cc(OC)c(OC)cc1NC(=O)c1ccc2c(c1)CCN2S(=O)(=O)c1ccccc1", "inhibition": "2.02%"}
{"smiles": "COc1cccc(CNC(=O)CSc2n[nH]c(-c3ccccc3Cl)n2)c1", "inhibition": "-28.3%"}
{"smiles": "COc1ccc(OC)c(CCNC(=O)CN2C(=O)COc3ccc(S(=O)(=O)N4CCCCCC4)cc32)c1", "inhibition": "-4.79%"}
{"smiles": "CCc1ccc(CNC(=O)c2ccc3c(c2)nc2n3CCCCC2)cc1", "inhibition": "-25.8%"}
{"smiles": "COc1cccc(CNC(=O)CCNS(=O)(=O)c2ccc3c(c2)CCCC(=O)N3)c1", "inhibition": "-1.41%"}
{"smiles": "Cc1ccc(O)c(NC(=O)COCc2cc(-c3ccco3)on2)c1", "inhibition": "-3.94%"}
{"smiles": "CC(=O)Nc1nonc1-c1nnc(SCc2ccccc2Cl)n1C", "inhibition": "9.47%"}
{"smiles": "COc1cc2c(cc1OC)n(CC(=O)c1ccc(C)cc1)c(=O)n1nc(CCn3nc(C)cc3C)nc21", "inhibition": "6.42%"}
{"smiles": "COc1ccc(NC(=O)c2ccc3c(c2)CCN3S(=O)(=O)c2ccccc2)cc1", "inhibition": "-6.89%"}
{"smiles": "COc1ccc(-c2cc(C(=O)Oc3cccc(C)c3C)c3ccccc3n2)cc1", "inhibition": "-2.8%"}
{"smiles": "CN(C)CCNC(=O)Cn1nc(N2CCN(c3ccccc3)CC2)ccc1=O", "inhibition": "-2.15%"}
{"smiles": "CCOc1ccc(CC(=O)NCc2ccc3c(c2)CCN3C(C)=O)cc1OCC", "inhibition": "-9.92%"}
{"smiles": "CC(C)(C)OC(=O)N1CCC(c2c(C(=O)N3CCN(c4ncccn4)CC3)cnn2-c2cccc(F)c2)CC1", "inhibition": "-2.31%"}
{"smiles": "COc1ccc(NC(=O)CCc2nnc3n(CC(C)C)c(=O)c4ccccc4n23)cc1OC", "inhibition": "0.0213%"}
{"smiles": "Cc1ccc(C)c(S(=O)(=O)c2nnn3c2nc(N2CCCCC2)c2sccc23)c1", "inhibition": "4.3%"}
{"smiles": "CCc1cccc(NC(=O)C(CC)n2nc(C)c3sc4ccccc4c3c2=O)c1", "note": "(stereo unspecified)", "inhibition": "18.1%"}
{"smiles": "COc1ccc(NC(=O)c2sc3nc4c(cc3c2N)CN(Cc2ccccc2)CC4)cc1OC", "inhibition": "4.89%"}
{"smiles": "Cc1c(C(=O)NCc2ccccc2Br)oc2ccc3c(c12)C(=O)CC(C)(C)O3", "inhibition": "7.3%"}
{"smiles": "COC(=O)c1cc(CNC(=O)c2ccc(S(=O)(=O)N(C)c3ccccc3)cc2)ccc1OC", "inhibition": "active: 74.1%"}
{"smiles": "Cc1noc(-c2ccc(-c3noc(-c4ccc(C(F)(F)F)cc4)n3)cc2)n1", "inhibition": "-5.22%"}
{"smiles": "CC(C)c1ccc(NC(=O)C(Cc2ccccc2)NS(=O)(=O)c2ccc3c(c2)oc(=O)n3C)cc1", "note": "(stereo unspecified)", "inhibition": "-10.3%"}
{"smiles": "COc1ccc(Nc2nc(-c3ccccc3F)nc3ccccc23)cc1OC", "inhibition": "11.5%"}
{"smiles": "O=C(CSc1nnc(-c2ccccc2)c(-c2ccccc2)n1)NCc1ccco1", "inhibition": "active: 40%"}
{"smiles": "CC(C)c1ccc(NC(=O)Cn2c(=O)oc3cc(S(=O)(=O)N4CCCC4)ccc32)cc1", "inhibition": "-13.1%"}
{"smiles": "COc1ccc(-c2nc(S(=O)(=O)c3ccc(C)cc3)c(NCc3ccccc3)o2)cc1", "inhibition": "-15.8%"}
{"smiles": "Cc1cc(C)c2c(=O)c3c(oc2c1)C(=O)N(Cc1ccco1)C3c1ccccc1F", "note": "(stereo unspecified)", "inhibition": "5.05%"}
{"smiles": "CCc1c(C)c(C#N)c2nc3ccccc3n2c1Nc1cccc(C(F)(F)F)c1", "inhibition": "-3.56%"}
{"smiles": "CCOC(=O)c1c(C)[nH]c(C)c1S(=O)(=O)NCC(=O)N1CCN(c2ccccc2F)CC1", "inhibition": "8.8%"}
{"smiles": "COc1ccc(-c2nc3ccccc3s2)cc1NC(C)=O", "inhibition": "-11.5%"}
{"smiles": "COc1ccc(CNC(=O)C2CCN(S(=O)(=O)c3ccc4c(ccn4C)c3)CC2)cc1", "inhibition": "-8.63%"}
{"smiles": "COc1ccc(C(=O)CCC(=O)Nc2cc(C)ccc2C)cc1", "inhibition": "19.1%"}
{"smiles": "O=C(Nc1ccccc1-c1ccccc1)NC1CC2CCCC(C1)N2Cc1ccc(F)cc1", "note": "(stereo unspecified)", "inhibition": "active: 51.6%"}
{"smiles": "CCOc1ccccc1NC(=O)c1cc2c(=O)[nH]c3ccccc3c2s1", "inhibition": "-9.45%"}
{"smiles": "Cc1cccc2sc(N(Cc3cccnc3)C(=O)COc3ccccc3)nc12", "inhibition": "-3.08%"}
{"smiles": "CC(=O)c1cccc(Nc2nc(-c3ccccc3Cl)nc3ccccc23)c1", "inhibition": "13%"}
